# Test results taken from PubChem BioAssay AID2546 (National Center for Advancing Translational Sciences (NCATS), 2010).
# Hit rate of the full screen: of about 310,000 compounds, about 11,000 (3.5%) were called active. This list was built around the results that the source calls inconclusive (neither active nor inactive); the mix of calls is not that of the screen. The call rests on the fitted dose curve; in most records, active means well fitted inhibition curve with a large enough effect; inconclusive means small, poorly fitted or top-dose-only effect, or effect the other way; inactive means flat fitted curve, though single readings scatter. Potencies of inconclusive entries are left out as doubtful fits.
# Test: VP16 counterscreen qHTS for inhibitors of ROR gamma transcriptional activity;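 further: Gal4-VP16 expression switched on by copper sulfate through the metallothionein promoter; nearly all actives have a fitted effect of over 50% in size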
# Settings: Drosophila S2 Gal4-VP16 UAS-luciferase, luminescence, 20 h; activity, negative = inhibition: at 53.6 µM (top of the series)
# On the % scale 0 is the no-effect control and ±100 the full control effect; potency means the concentration at half of the fitted maximal effect; tags describe the fitted curve by direction and shape.
Compound,Potency,"activity, negative = inhibition"
COc1cc(C(=O)NCCOc2cc(C)cc(C)c2)cc(OC)c1OC,inactive,
COc1ccc(NC(=S)NCCc2ccccc2)c(C)c1,active: 3.98 µM,
COC(=O)c1sc2ccccc2c1C(=O)OC,inactive,
Cc1nc2cc(C(F)(F)F)ccc2n1CCNc1nc(-c2ccc(F)cc2)cs1,"inconclusive [inhibitor, single point]",
Cc1nn(-c2ccccc2)c(Cl)c1/C=N/NC(=O)c1[nH]ncc1Br,"inconclusive [inhibitor, single point]",
Cc1cc(C)c(C#N)c(SCc2ccccc2[N+](=O)[O-])n1,"inconclusive [activator, single point]",
Cn1cc(CN2CCC(C(=O)Nc3cccc(-c4cccc(F)c4)c3)CC2)cn1,inactive,
C=CCOC(=O)C1=C(C)NC(SCC(=O)Nc2nccs2)=C(C#N)C1c1cccs1 (stereo unspecified),"inconclusive [inhibitor, single point]",
Cc1cc(C)c2[nH]c(=O)c(C(c3nnnn3Cc3ccc4c(c3)OCO4)N3CCC(C)CC3)cc2c1 (stereo unspecified),inactive,
N#CC1=C(N)NC(=S)C(C(N)=O)C1c1ccccc1F (stereo unspecified),"inconclusive [inhibitor, single point]",
COc1ccc(NC(=O)c2cc(S(=O)(=O)N3CCCCC3)ccc2N2CCCCC2)cn1,inactive,
Cc1nc2ncccn2c1-c1csc(Nc2ccccc2)n1,"inconclusive [activator, single point]",
O=C(Nc1ccc(N2CCOCC2)c(Cl)c1)c1cccc(F)c1,"inconclusive [inhibitor, single point]",
Cc1ccc(C)c(C(=O)COC(=O)C(C)N2C(=O)C3C4CCC(C4)C3C2=O)c1 (stereo unspecified),inactive,
C(=N\Nc1nc(N2CCCCC2)nc(N2CCCCC2)n1)/c1c[nH]c2ccccc12,inactive,
Cc1ccc(C(NC(=O)NCCCN2CCOCC2)=C(Cl)Cl)cc1F,"inconclusive [inhibitor, single point]",
O=C(Cc1cccs1)NNC(=S)NC(=O)c1ccc(F)c(F)c1,active: 5.62 µM,
O=C(CN1CCN(C(=O)C2CCCO2)CC1)Nc1cc(Cl)ccc1Cl (stereo unspecified),inactive,
C/C(=N\NC(=S)NCCc1ccccc1)c1ccc(Cl)cc1,active: 3.16 µM,
CC(Nc1cccc2ccccc12)C(=O)N/N=C/c1ccccn1 (stereo unspecified),"inconclusive [inhibitor, single point]",
O=C(CCCOc1cccc(Br)c1)NC1CCC(O)CC1 (stereo unspecified),inactive,
c1nc2n(n1)C1=C(CCCC1)C1(CCCCC1)N2,"inconclusive [inhibitor, full curve]",
COc1ccc(NC(=O)C(=O)N2N=C(C(C)C)CC2(O)C(F)(F)F)cc1 (stereo unspecified),"inconclusive [inhibitor, single point]",
CC1S/C(=N/N=C/c2ccco2)N(Cc2ccc(F)cc2)C1=O (stereo unspecified),"inconclusive [activator, single point]",
Cc1cc(=O)[nH]c(SCC(=O)N2CCCC(C)C2)n1 (stereo unspecified),inactive,
CCc1ccccc1NC(=O)CN(C)C(=O)CSc1nnc(Nc2ccc(C)cc2)s1,inactive,

Compound,Potency,"activity, negative = inhibition"
CCn1cc(C(=O)O)c(=O)c2cnc(N3CCN(C(=S)Nc4ccccc4Cl)CC3)nc21,inactive,
C=CCn1c(OCc2ccccc2)n[nH]c1=S,active: 17.8 µM,
COC(=O)c1c(NC(=O)C2CC2)sc2c1CCCC2,inactive,
Nc1nc(-c2ccccc2)c(-c2ccccc2)s1,inactive,
O=C(CCN1CCC(c2cccs2)=N1)c1cccs1,"inconclusive [activator, full curve]",
Cc1cccc(OCC(=O)NC(=S)NNC(=O)c2ccncc2)c1,"inconclusive [inhibitor, single point]",
O=C(COc1ccccc1)Nc1nccs1,"inconclusive [inhibitor, single point]",
c1ccc2c(c1)[nH]c1c(NCC3CCCO3)ncnc12 (stereo unspecified),"inconclusive [inhibitor, partial curve]",
N=c1c(C(=O)NCc2ccco2)cc2c(=O)n3ccccc3nc2n1C1CCCC1,inactive,
Cc1ccc(CNC(=O)c2ccc(NS(=O)(=O)c3c(C)noc3C)cc2)cc1,inactive,
CC(C)(C)OC(=O)CNC(=O)c1[nH]cnc1C(=O)NCC(=O)OCc1ccccc1,inactive,
CC(=O)Nc1ccc(S(=O)(=O)Oc2ccc3c(c2)C(C)=CC(C)(C)N3)cc1,"inconclusive [inhibitor, single point]",
C/C(=N\NC(=O)c1ccoc1C)c1ccc(Cl)s1,active: 10 µM,
O=C(OCc1ccccc1)c1cccc(-c2nnc(-c3ccccc3)o2)c1,"inconclusive [inhibitor, partial curve]",
CO[C@H]1COC(=O)[C@H](C)NC(=O)[C@@H](C)COC(=O)C/C=C\[C@@H]1C,,inactive: -4.65% [at 10 µM]
S=c1[nH]nc(-c2ccccc2Br)n1Cc1ccccc1,active: 6.31 µM,
CCC1=NN(C(=O)Cc2ccc(OC)cc2)C(O)(C(F)(F)F)C1 (stereo unspecified),"inconclusive [inhibitor, single point]",
CSc1c(SCc2ccccc2)cnn(Cc2ccccc2)c1=O,active: 7.08 µM,
O=C(CS(=O)(=O)c1ccc(Cl)cc1)Nc1nnc(-c2cccs2)o1,"inconclusive [inhibitor, single point]",
c1ccc(Nc2nc(N3CCCC3)nc(N3CCCC3)n2)cc1,inactive,
Cc1ccc(C(C(=O)NCc2ccco2)N(Cc2ccco2)C(=O)CNC(=O)c2ccco2)cc1 (stereo unspecified),inactive,
COc1cccc(OCC(=O)Nc2ccc(OC)c(OC)c2)c1,"inconclusive [inhibitor, single point]",
COc1ccc(-c2cc(NCCc3ccncc3)n3ncnc3n2)cc1,"inconclusive [inhibitor, single point]",
Cc1ccc(Nc2nc3ccccc3c(=O)s2)cc1,active: 11.2 µM,
Cc1ccc(/C=C/C(=O)N2CCC(Cc3ccccc3)CC2)cc1,"inconclusive [inhibitor, single point]",
